Target: T1, E-S6 (monomeric full-length extracellular mouse E-selectin) (mouse, UniProt Q00690 22-557)
T1 construct: mouse E-selectin, extracellular region as in E-S6-IgG without the Fc region: lectin domain, EGF-like domain and six SCR domains; also called monomer E-selectin; monomeric full-length E-S6; source: silkworm larvae (recombinant BmNPV), from the serum, purified (HisTrap Excel, StrepTrap HP); not shown: TEV cleavage site, C-terminal, kept; His8, C-terminal, kept; Strep II, C-terminal, kept
T1 sequence (looked up): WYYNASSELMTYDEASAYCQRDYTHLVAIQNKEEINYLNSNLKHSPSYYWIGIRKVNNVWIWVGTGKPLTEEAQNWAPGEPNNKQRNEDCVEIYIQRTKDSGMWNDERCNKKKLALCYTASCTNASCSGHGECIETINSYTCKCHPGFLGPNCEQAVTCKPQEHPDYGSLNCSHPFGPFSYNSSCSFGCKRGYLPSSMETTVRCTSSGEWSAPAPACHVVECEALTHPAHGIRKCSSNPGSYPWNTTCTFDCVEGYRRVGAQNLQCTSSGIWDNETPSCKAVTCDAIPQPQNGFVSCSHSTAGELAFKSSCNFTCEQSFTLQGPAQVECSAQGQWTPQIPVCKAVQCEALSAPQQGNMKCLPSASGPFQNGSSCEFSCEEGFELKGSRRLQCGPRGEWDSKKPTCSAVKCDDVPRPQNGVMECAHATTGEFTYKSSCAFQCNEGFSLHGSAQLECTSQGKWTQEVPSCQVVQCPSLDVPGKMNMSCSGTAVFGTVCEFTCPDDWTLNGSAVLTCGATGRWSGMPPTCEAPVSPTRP
Experiment: SPR; Biacore T-100, CM5 chip, 25 °C; CD44/HCELL captured from KG1a lysate by immobilised Hermes-3; E-selectin proteins injected in sequential concentrations at 20 ul/min, 90 s each; running buffer 50 mM Tris pH 8.0, 1% Triton X-100, 50 mM NaCl, 1 mM CaCl2; isotype control subtracted; kon calculated from KD and koff
Conditions: one partner purified

B1: CD44/HCELL (hematopoietic cell E- and/or L-selectin ligand) (natural protein, human (endogenous in KG1a))
chain: [about 200 residues not given here]ATRDQDTFHPSGGSHTTHGSESDGHSHGSQEGGANTTSGPIRTPQIPEWLIILASLLALALILAVCIAVNSRRRCGQKKKLVINSGNGAVEDRKPSGLNGEASKSQEMVHLVNKESSETPDQFMTADETRNLQNVDMKIGV
notes: A glycosylated ligand; source: endogenous, KG1a lysate; immunoprecipitated with anti-CD44 (clone 515) for blots, captured on the chip by Hermes-3 for SPR
Work on B1 yielded a Kd of 2040 nM and a kon of 110 M⁻¹ s⁻¹.

Reference: publication PMC7076219, “Functional binding of E-selectin to its ligands is enhanced by structural features beyond its lectin domain” (The Journal of Biological Chemistry, 2020)
